Reference: the RNAGym collection of RNA variant scans (doi:10.7554/elife.90254)
Read counts are not given, so values of variants with three or more changes are uncertain.

B1: LINE1-mini (parent)
chain: GGCAGAGCUCAACACAGCGUGGCAAAGUGGCUGUGGCUAGACUGCC

Variants of: B1
Assay: self-cleavage, relative activity (ratio to wild type); higher = more cleavage; in vitro, sequencing; the parent is a self-cleaving ribozyme

Variant	self-cleavage
G1U U9C A14G	0.03
G1U G21A G29A	0.47
G1U G22U G27C	0.1
G1U G17U A24C U38C	0.01
G1U U20C G29U A39U	0.12
G2A A6G C8G C18G	0.05
G2A A4G G7C C15U G30U	0.19
G1U G19U U28G C37A U38G	0.01
G1U U9C C37U	0.02
G1U U9C C37G	0.04
G2A A4G U32C	0.14
G1U G17U C18A C23G	0.06
G1U U9A C37U U43G	0.13
G1U G27C G35C U38G	0.03
G1U U20A G29U G33C U34A U43C	0.01
G1U G30A A39C	0.03
G2A A4U U9A A16G G17U G27A G35U	0.62
G2A A4G G33C A39C	0.03
G1U G17U C23U G30U	0.05
G1U G30A G33U C45A	0.11
G2A A4C U9G U20A C31G G35U	0.01
G2A A4G G22C U43A	0.06
G1U G27U G36C U38C U43A	0.04
G2A A6C A12G U20G U38A C42A C46A	0.13

Variant	self-cleavage
G1U G21C A26C G35C C37G C42G	0.01
G1U G30C C46A	1.33
G2A A4U G7U A39C	0.24
G1U U20A A26C	0.14
G2A A4G G7A	0.38
G1U G30C G33A	0
G1U G19A U32A G40U	0.03
G1U U34C C46G	0
G2A A4G G5C G7U C23G U32G	0.01
G1U U9G A12U U38C C42U	0
G1U U20A G36C U43C G44A	0
G2A A4G U38A	0.23
G1U G21U C23A U32C	0.78
G1U U32A G33C G35A	0.04
G1U G22C G27U G36C	0
G1U U20C A25U A41U	0.34
G1U G17C U28C	0.12
G2A A4G G7A G30A C31A G44C	0.23
G2A A4U A16G	0.35
G1U U9G C13G A26U G27C A39U	0.02
G2A A4U G21C A24U G36U	0.12
G1U U28G G33A	0
G1U G29U U32G	0.08
G2A A4U A6C C37G G40U	0.02

Variant	self-cleavage
G1U G17C C18A U32A G33C U38G	0
G1U U20C G27U	0.08
G1U G33C A39C G40C G44U	0.01
G1U G21U G27C	0.18
G2A A4U A14G A25G U38G A39G	0.04
G1U U20G G30A	0.06
G2A A4U C23G	0.71
G1U U20C U32A	0.06
G1U G33U A41G	0.01
G1U U9G C31G G44U	0.03
G1U U9A A11G A39C G40U C45U	0
G1U U9G A11G C13G C18A G35C A41C	0
G2A A4U G5U G7C A12C C15A U32C	0.1
G2A A6C U34A C37A	0.07
G1U U9C G22A G29U G44U	0.01
G1U U9C G29U G40U	0.01
G1U G17U C46A	0.2
G1U G17A G19A G22C	0.23
G1U U9G A25U U38A	0.01
G1U U9G C18G G21U A24G U43A	0
G2A A4G G5A	0.12
G1U U20A U32A A39G G44A	0
G1U G21U G29C	0.07
G1U U9A C13U C23A	0.11

Variant	self-cleavage
G1U U9A C13U C23U	0.02
G2A A4C A11C G19U C37G	0.01
G1U G35U G40C	0.08
G1U G36A A41C	0.03
G1U G19A U34A	0.18
G1U G36U G40C	0.04
G1U U9A G35U	0
G1U G27U G33C C42A	0.02
G1U G33C U34A G35U C45U	0
G1U U20C C31U	0.03
G2A A6C C13A C18U A41C	0.16
G1U U9C G19A A25C A26U G33U C45U	0.04
G2A A4U G5C C18G A25C	0.17
G1U U9G A14C U28C G29C U34G C46A	0
G1U G19C G29A G33A C42G U43C G44C	0
G1U U9A C31A	0.01
G1U G27C U28C G30U	0.04
G1U U32G A41G	0.05
G1U G30U A41C	0.01
G1U G19C U20A U34C G40A G44A	0.01
G2A A4G U9G C31U C45A	0.02
G1U U9A U28G G36A	0.02
G1U U9G C13U C23U U38G	0.01
G2A A4U C15G G22C G27A G29C C31G	0.01

Variant	self-cleavage
G2A A4G U9G G19U C31U	0.04
G2A A4U G29C U43G	0.06
G1U G17U G22U U28C	0.04
G1U G22C C42U	0.07
G1U G22U C45A	0.44
G1U U9A G19U C42U C45G	0.07
G1U U32C C42A U43G	0.03
G1U G21A G22A C45G	0.34
G2A A4C A12G G40U	0.06
G1U G17U G29A U34C	0.1
G2A A6C G7C C8G C15G G35C A39G U43A C45A	0.1
G1U G27A U34A A39U G44U	0.02
G2A A6C A26C G27C U32C	0.02
G1U G22U C46A	2.7
G1U U9G C42U	0.04
G1U U9G G19U U28C	0.01
G1U G17C C31U	0.04
G1U U20G G40U	0.01
G2A A6C G44C	0.35
G1U G21A G44U C46U	1.2
G1U G27C G40U	0.03
G1U U9G A11U	0.01
G2A A6C A16G C18U	0.11
G1U U9C C10A	0.03

Variant	self-cleavage
G2A A4C A25C	0.18
G1U G21C C31G	0.05
G1U G44U C46A	0.06
G1U G29A G30C	0.08
G2A A4G G22A A25C C42G C46A	0.09
G1U G17A C23A	0.23
G1U U28A C31G G40U	0.05
G1U G19A G22U U32C	0.11
G1U G17U G22U	0.03
G1U U28G A41U	0.21
G2A A6C G17U G21A	0.12
G1U U32A U34C	0.01
G1U G17U C37U	0.05
G1U U28G G36A	0.05
G1U U28A U32G	0.04
G2A A4C G21C	0.09
G2A A4U G17A U32C U34A	0.12
G1U U9G G27U C37U	0.03
G2A A4U A16U U34A	0.18
G1U U38A C42U U43C C45G	0.06
G2A A6C G36A G40C	0.08
G2A A6C G17A	0.09
G1U G21U G30A A39G G40U	0.06
G2A A4G A14G	0.12

Variant	self-cleavage
G1U G19A G22C U38G	0
G1U G29A G33U U38A	0.03
G2A A4C G40C	0.43
G1U U28C G40U	0.07
G1U U34C C37A A41C C45G	0.08
G1U G35U A39C	0.1
G1U G21A G29C G44U	0.19
G1U G17C G30U	0.03
G1U U38G A41G	0
G1U G19C U28G C37G U38C C42U	0.01
G1U G30A G40U	0.02
G2A A4C G40A U43C C45U	0.1
G1U G19C U20A U32A A39G	0.03
G2A A4C G19U C23G G29A G30C C31A	0.03
G2A A4U A14U G21U	0.09
G2A A4G G7U G22U G27A U28G G29U G30A U32C	0.21
G1U G30C G36U G40C	0.13
G1U U20A A25U A39C C46U	0.02
G1U G22U C23U	0.73
G1U G29C C45A	0.13
G1U U38A G40A	0.05
G1U U38A C46U	0.16
G1U G19U A26U U32A U43G G44A	0.05
